Results filed as inconclusive are left out. Calls come from the whole dose curve; as a rule, active = well fitted cell-killing curve with a large enough effect; inconclusive = small, poorly fitted or top-dose-only effect, or effect the other way; inactive = no such curve, though single readings can be large or run the other way. Certain results were filed several times, with different values. This list holds those alone. The source may hold further records. Values that stand side by side repeat one measurement in other runs, samples, wells, individuals or studies.
Experiment: Viability qHTS for spleen associated tyrosine kinase inhibitor (SYKi) drug resistant MV4-11 cells (AID 1963824); note: nearly all actives have a fitted effect of over 35% in size
Details: SYKi-resistant MV4-11 viability, CellTiter-Glo, 72 h
Excerpt: Department of Medicine, Hematology/Oncology
University Hospital Frankfurt, Germany.
Trials have shown promising clinical activity of the selective SYK inhibitor entospletinib in patients with high expressing HOXA9/MEIS1 acute leukemias. As the development of resistance mechanisms is a common problem in the use of targeted drugs, we performed a chemical library screen to identify drug sensitivities in SYK inhibitor resistant AML cells. […] Glucocorticoids are potent immunosuppressants which work in part by inhibiting the transcription of cytokine genes.
Described herein is a viability screen to look for activity in the SYK inhibitor drug resistant cell line against four NCATS compound libraries (MIPE 5.0, NPC, NPACT, and Kinase) totaling 11372 compounds. Active hits were reacquired for confirmation and further secondary assay testing.
SEQUENCE No. (e.g., 1, 2, 3, etc.); […] (e.g., Cells, Incubation, Reagent, etc.); VALUE; DESCRIPTION.
1; Media; 2uL; white, solid-bottom Corning assay plate.
2; Compounds; 23nL; Echo acoustic dispenser. […]
7; Detection; Luminescence; ViewLux plate reader (PerkinElmer). […]
1. Quantitative high-throughput screening (qHTS) of small molecule compounds was conducted on drug resistant SYKi MV4-11 cell line. […]
5. Viability was assessed by adding 3uL of CellTiter-Glo detection reagent (Promega). […]
7. Luminescence was measured on a ViewLux plate reader (PerkinElmer).
Potency is the fitted concentration of half-maximal effect.

Structure (SMILES): C=C(c1ccc(C(=O)O)cc1)c1cc2c(cc1C)C(C)(C)CCC2(C)C
- Potency: active: 178 nM, 531 nM, 461 nM, 1.86 µM [separate samples]

Source: PubChem BioAssay (NCATS)
